For experiment [1], the target named is T1, GST-MCM8IP RBM (human) (UniProt Q8N3J3).
T1 sequence: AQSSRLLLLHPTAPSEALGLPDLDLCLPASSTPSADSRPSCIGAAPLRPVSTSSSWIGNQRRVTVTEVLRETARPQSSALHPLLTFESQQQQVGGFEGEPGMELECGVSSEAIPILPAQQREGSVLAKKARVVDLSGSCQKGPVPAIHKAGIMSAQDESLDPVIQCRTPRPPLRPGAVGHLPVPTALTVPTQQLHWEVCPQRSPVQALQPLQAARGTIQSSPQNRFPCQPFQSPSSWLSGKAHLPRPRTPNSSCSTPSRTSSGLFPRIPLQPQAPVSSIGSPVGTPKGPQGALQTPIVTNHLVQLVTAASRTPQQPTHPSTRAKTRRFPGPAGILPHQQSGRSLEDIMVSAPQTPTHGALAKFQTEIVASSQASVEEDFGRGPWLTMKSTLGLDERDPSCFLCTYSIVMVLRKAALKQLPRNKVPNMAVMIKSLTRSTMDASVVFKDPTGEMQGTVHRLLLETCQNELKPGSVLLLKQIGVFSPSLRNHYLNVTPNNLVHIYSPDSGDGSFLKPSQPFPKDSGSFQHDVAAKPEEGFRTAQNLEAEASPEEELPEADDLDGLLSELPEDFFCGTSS
Put plainly: pull-down; GST fusion from E. coli held on glutathione-agarose and washed, incubated 2 h at 4 °C with cleared lysate of bacteria expressing the partner; 20 mM Tris-HCl pH 7.5, 200 mM NaCl, 0.5% NP40; western blot; only the target purified. For orientation: In western blotting, separated proteins are transferred to a membrane and probed.

Sequences of proteins named here, by UniProt entry; tags and fusion partners are left off.
UniProt P27694: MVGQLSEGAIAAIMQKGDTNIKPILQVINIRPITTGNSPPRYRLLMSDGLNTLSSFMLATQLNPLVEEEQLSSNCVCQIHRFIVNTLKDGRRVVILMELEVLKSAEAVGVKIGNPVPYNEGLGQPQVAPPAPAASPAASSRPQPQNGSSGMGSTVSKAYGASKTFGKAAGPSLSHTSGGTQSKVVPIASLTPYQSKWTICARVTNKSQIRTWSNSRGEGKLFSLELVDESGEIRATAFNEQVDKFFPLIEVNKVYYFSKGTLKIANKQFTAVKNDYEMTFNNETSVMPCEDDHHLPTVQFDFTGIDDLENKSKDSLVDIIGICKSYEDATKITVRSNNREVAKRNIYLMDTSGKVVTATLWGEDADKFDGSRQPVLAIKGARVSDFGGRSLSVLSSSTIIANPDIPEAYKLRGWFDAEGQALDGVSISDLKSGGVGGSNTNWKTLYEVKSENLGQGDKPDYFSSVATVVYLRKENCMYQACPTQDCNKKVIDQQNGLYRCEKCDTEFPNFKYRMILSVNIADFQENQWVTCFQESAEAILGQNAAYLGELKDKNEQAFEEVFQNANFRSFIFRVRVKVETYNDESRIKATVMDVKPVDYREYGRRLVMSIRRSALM
UniProt P15927: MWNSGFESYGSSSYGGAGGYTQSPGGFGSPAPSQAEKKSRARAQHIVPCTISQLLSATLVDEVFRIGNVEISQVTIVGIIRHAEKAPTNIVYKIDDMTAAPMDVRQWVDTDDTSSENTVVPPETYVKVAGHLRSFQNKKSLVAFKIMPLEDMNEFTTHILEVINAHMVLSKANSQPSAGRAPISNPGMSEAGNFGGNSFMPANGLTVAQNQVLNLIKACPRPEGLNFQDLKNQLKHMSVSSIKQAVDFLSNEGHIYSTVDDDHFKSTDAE

In experiment [2] the target is T2, GST-MCM8IP WT (human) (UniProt Q8N3J3).
T2 sequence: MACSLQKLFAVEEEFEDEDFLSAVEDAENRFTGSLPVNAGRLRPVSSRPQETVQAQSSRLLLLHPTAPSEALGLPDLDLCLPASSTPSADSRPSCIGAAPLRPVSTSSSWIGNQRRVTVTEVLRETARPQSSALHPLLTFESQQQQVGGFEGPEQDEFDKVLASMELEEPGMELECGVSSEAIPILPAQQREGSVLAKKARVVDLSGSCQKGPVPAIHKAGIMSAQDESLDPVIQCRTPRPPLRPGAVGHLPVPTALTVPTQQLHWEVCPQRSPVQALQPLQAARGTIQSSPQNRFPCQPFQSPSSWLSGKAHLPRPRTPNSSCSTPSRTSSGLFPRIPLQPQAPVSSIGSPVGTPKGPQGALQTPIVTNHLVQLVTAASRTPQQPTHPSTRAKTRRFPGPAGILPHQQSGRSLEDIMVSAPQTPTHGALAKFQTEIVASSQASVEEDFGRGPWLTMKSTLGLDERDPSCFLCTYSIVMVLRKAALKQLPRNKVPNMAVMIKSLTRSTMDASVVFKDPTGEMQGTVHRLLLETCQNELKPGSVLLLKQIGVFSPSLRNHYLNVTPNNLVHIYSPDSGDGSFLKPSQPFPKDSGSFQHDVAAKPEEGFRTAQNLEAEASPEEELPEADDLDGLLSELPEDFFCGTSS
Described as above.

In experiment [3] the target is T3, GST-MCM8IP first 215 residues (human) (UniProt Q8N3J3).
T3 sequence: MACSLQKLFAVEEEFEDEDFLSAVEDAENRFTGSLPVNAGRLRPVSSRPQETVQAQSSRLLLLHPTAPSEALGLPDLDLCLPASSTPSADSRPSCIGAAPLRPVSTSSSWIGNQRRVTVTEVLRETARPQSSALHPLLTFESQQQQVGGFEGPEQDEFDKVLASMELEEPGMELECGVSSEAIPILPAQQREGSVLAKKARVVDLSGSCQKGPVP
Described as above.

Experiment [4] addresses T4, HA-MCM8IP WT (human) (UniProt Q8N3J3).
T4 sequence: T2 sequence
The experiment is described as follows: co-IP; anti-HA agarose from lysates of HEK293T cells expressing the HA-tagged bait; 50 mM Tris-HCl pH 7.5, 1% NP40, 150 mM NaCl, 4 h at 4 °C; western blot of endogenous partners.

The values below come from article PMC7290032.

These are yes or no findings as the source states them, for the method shown. In cells and extracts the contact can be indirect. Some entries that bind do so weakly or less than the wild type. Where a sequence is shown, tags or fusion partners need not be part of it.

Regarding “RPA1 (expressed in bacteria) (from UniProt P27694 1-616)”, the binding result in experiment [1] was “no binding”; in experiment [2], “binds”; in experiment [3] it was “binds”.

For RPA1 (from UniProt P27694 1-616), the binding result in experiment [4] is “binds”.

Regarding RPA2 (from UniProt P15927 1-270), the binding result in experiment [4] is “binds”.
